Test results as given in publication PMC9911399, “Two distinct binding modes provide the RNA-binding protein RbFox with extraordinary sequence specificity”.
Positions count from the first letter of the chain named. Some of the results follow.

T1: RBFOX1 RRM RbFoxmut (Fox-RRM*) (Homo sapiens, UniProt Q9NWB1 109-208, R118D;E147R;N151S;E152T)
T1 sequence: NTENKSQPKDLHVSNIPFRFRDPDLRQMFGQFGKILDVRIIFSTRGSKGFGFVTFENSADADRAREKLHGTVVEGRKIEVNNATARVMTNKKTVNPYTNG

B1: AAGACUU (DNA:RNA)
RNA: GGGAGACCGGAAUUCAGAUUGUCCAAGACUUUUAAAUCCCGUCGUAGCCACCA
DNA 1: CAATCTGAATTCCGGTCTCCC
DNA 2: TGGTGGCTACGACGGGATT
B2: AUGCACA (DNA:RNA)
RNA: B1 RNA with A26U, A28C, C29A, U30C, U31A
DNA 1: CAATCTGAATTCCGGTCTCCC
DNA 2: TGGTGGCTACGACGGGATT
B3: GGAAUUG (DNA:RNA)
RNA: B1 RNA with A25G, A26G, G27A, C29U, U31G
DNA 1: CAATCTGAATTCCGGTCTCCC
DNA 2: TGGTGGCTACGACGGGATT
B4: CGCCAUG (DNA:RNA)
RNA: B1 RNA with A25C, A26G, G27C, A28C, C29A, U31G
DNA 1: CAATCTGAATTCCGGTCTCCC
DNA 2: TGGTGGCTACGACGGGATT
B5: GUGAAGG (DNA:RNA)
RNA: B1 RNA with A25G, A26U, C29A, U30G, U31G
DNA 1: CAATCTGAATTCCGGTCTCCC
DNA 2: TGGTGGCTACGACGGGATT
B6: CCAAGGG (DNA:RNA)
RNA: B1 RNA with A25C, A26C, G27A, C29G, U30G, U31G
DNA 1: CAATCTGAATTCCGGTCTCCC
DNA 2: TGGTGGCTACGACGGGATT
B7: CCCCACU (DNA:RNA)
RNA: B1 RNA with A25C, A26C, G27C, A28C, C29A, U30C
DNA 1: CAATCTGAATTCCGGTCTCCC
DNA 2: TGGTGGCTACGACGGGATT
B8: GGUAACU (DNA:RNA)
RNA: B1 RNA with A25G, A26G, G27U, C29A, U30C
DNA 1: CAATCTGAATTCCGGTCTCCC
DNA 2: TGGTGGCTACGACGGGATT
B9: UACGGUC (DNA:RNA)
RNA: B1 RNA with A25U, G27C, A28G, C29G, U31C
DNA 1: CAATCTGAATTCCGGTCTCCC
DNA 2: TGGTGGCTACGACGGGATT
B10: GAUUUCG (DNA:RNA)
RNA: B1 RNA with A25G, G27U, A28U, C29U, U30C, U31G
DNA 1: CAATCTGAATTCCGGTCTCCC
DNA 2: TGGTGGCTACGACGGGATT
B11: UUGACAG (DNA:RNA)
RNA: B1 RNA with A25U, A26U, U30A, U31G
DNA 1: CAATCTGAATTCCGGTCTCCC
DNA 2: TGGTGGCTACGACGGGATT
B12: ACCUUUC (DNA:RNA)
RNA: B1 RNA with A26C, G27C, A28U, C29U, U31C
DNA 1: CAATCTGAATTCCGGTCTCCC
DNA 2: TGGTGGCTACGACGGGATT
B13: GUCCCUG (DNA:RNA)
RNA: B1 RNA with A25G, A26U, G27C, A28C, U31G
DNA 1: CAATCTGAATTCCGGTCTCCC
DNA 2: TGGTGGCTACGACGGGATT
B14: AUGCACU (DNA:RNA)
RNA: B1 RNA with A26U, A28C, C29A, U30C
DNA 1: CAATCTGAATTCCGGTCTCCC
DNA 2: TGGTGGCTACGACGGGATT
B15: UCACUCU (DNA:RNA)
RNA: B1 RNA with A25U, A26C, G27A, A28C, C29U, U30C
DNA 1: CAATCTGAATTCCGGTCTCCC
DNA 2: TGGTGGCTACGACGGGATT
B16: ACUAAUU (DNA:RNA)
RNA: B1 RNA with A26C, G27U, C29A
DNA 1: CAATCTGAATTCCGGTCTCCC
DNA 2: TGGTGGCTACGACGGGATT
B17: AACCGAC (DNA:RNA)
RNA: B1 RNA with G27C, A28C, C29G, U30A, U31C
DNA 1: CAATCTGAATTCCGGTCTCCC
DNA 2: TGGTGGCTACGACGGGATT
B18: UAAGAGC (DNA:RNA)
RNA: B1 RNA with A25U, G27A, A28G, C29A, U30G, U31C
DNA 1: CAATCTGAATTCCGGTCTCCC
DNA 2: TGGTGGCTACGACGGGATT
B19: GCUAUGG (DNA:RNA)
RNA: B1 RNA with A25G, A26C, G27U, C29U, U30G, U31G
DNA 1: CAATCTGAATTCCGGTCTCCC
DNA 2: TGGTGGCTACGACGGGATT
B20: UUUGUUU (DNA:RNA)
RNA: B1 RNA with A25U, A26U, G27U, A28G, C29U
DNA 1: CAATCTGAATTCCGGTCTCCC
DNA 2: TGGTGGCTACGACGGGATT
B21: GACCUUG (DNA:RNA)
RNA: B1 RNA with A25G, G27C, A28C, C29U, U31G
DNA 1: CAATCTGAATTCCGGTCTCCC
DNA 2: TGGTGGCTACGACGGGATT
B22: UAGCGGU (DNA:RNA)
RNA: B1 RNA with A25U, A28C, C29G, U30G
DNA 1: CAATCTGAATTCCGGTCTCCC
DNA 2: TGGTGGCTACGACGGGATT
B23: CCAAUUA (DNA:RNA)
RNA: B1 RNA with A25C, A26C, G27A, C29U, U31A
DNA 1: CAATCTGAATTCCGGTCTCCC
DNA 2: TGGTGGCTACGACGGGATT
B24: GCAUGAG (DNA:RNA)
RNA: GGGAGACCGGAAUUCAGAUUGUCCGCAUGAGUUAAAUCCCGUCGUAGCCACCA
DNA 1: CAATCTGAATTCCGGTCTCCC
DNA 2: TGGTGGCTACGACGGGATT
B25: GGAAAUA (DNA:RNA)
RNA: B1 RNA with A25G, A26G, G27A, C29A, U31A
DNA 1: CAATCTGAATTCCGGTCTCCC
DNA 2: TGGTGGCTACGACGGGATT
B26: AGCGGGC (DNA:RNA)
RNA: B1 RNA with A26G, G27C, A28G, C29G, U30G, U31C
DNA 1: CAATCTGAATTCCGGTCTCCC
DNA 2: TGGTGGCTACGACGGGATT
B27: AUUCGUG (DNA:RNA)
RNA: B1 RNA with A26U, G27U, A28C, C29G, U31G
DNA 1: CAATCTGAATTCCGGTCTCCC
DNA 2: TGGTGGCTACGACGGGATT
B28: CAAGGCG (DNA:RNA)
RNA: B24 RNA with G25C, C26A, U28G, A30C
DNA 1: CAATCTGAATTCCGGTCTCCC
DNA 2: TGGTGGCTACGACGGGATT
B29: AUUACGA (DNA:RNA)
RNA: B1 RNA with A26U, G27U, U30G, U31A
DNA 1: CAATCTGAATTCCGGTCTCCC
DNA 2: TGGTGGCTACGACGGGATT
B30: UUACUUG (DNA:RNA)
RNA: B24 RNA with G25U, C26U, U28C, G29U, A30U
DNA 1: CAATCTGAATTCCGGTCTCCC
DNA 2: TGGTGGCTACGACGGGATT
B31: ACAGGGA (DNA:RNA)
RNA: B24 RNA with G25A, U28G, A30G, G31A
DNA 1: CAATCTGAATTCCGGTCTCCC
DNA 2: TGGTGGCTACGACGGGATT

These binders were tested against T1, RBFOX1 RRM RbFoxmut (Fox-RRM*) (assay: EMSA; HiTS-Eq, 1 nM pool, 10 min; buffer printed only for the single-RNA assays: 10 mM Tris pH 7.5, 150 mM NaCl, 3.4 mM EDTA, 0.001% NP-40, 30 C). Conditions: tags: His6 N-terminal (pET28a); label: 5' 32P.
How it was run: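 These values rest on relative association constants, computed from read-count changes of each RNA species versus the control reaction and normalised to the cognate motif. Reads came from free RNA recovered by 8% native PAGE after purified RbFox RRM (wild type or mutant) at increasing concentrations was equilibrated for 10 min in 50 µL with 1 nM of a 5′-radiolabelled pool with 7 randomized nucleotides and DNA-annealed flanks.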
For B1, the binding signal was 0.0884 KA relative to UGCAUGU. With B2 the binding signal was 0.089 KA relative to UGCAUGU. B3 was tested, and the binding signal was 0.218 KA relative to UGCAUGU. B4 was tested, and the binding signal was 0.155 KA relative to UGCAUGU. With B5 the binding signal was 0.0716 KA relative to UGCAUGU. With B6 the binding signal was 0.0538 KA relative to UGCAUGU. In the case of B7, the binding signal is reported as 0.145 KA relative to UGCAUGU. With B8 the binding signal was 0.0653 KA relative to UGCAUGU. For B9, the binding signal was 0.158 KA relative to UGCAUGU. B10 was tested, and the binding signal was 0.0675 KA relative to UGCAUGU. B11 was tested, and the binding signal was 0.0597 KA relative to UGCAUGU. With B12 the binding signal was 0.0438 KA relative to UGCAUGU. B13 was tested, and the binding signal was 0.0884 KA relative to UGCAUGU. For B14, the binding signal was 0.088 KA relative to UGCAUGU. With B15 the binding signal was 0.0554 KA relative to UGCAUGU. In the case of B16, the binding signal is reported as 0.0778 KA relative to UGCAUGU. With B17 the binding signal was 0.0558 KA relative to UGCAUGU. For B18, the binding signal was 0.0654 KA relative to UGCAUGU. B19 was tested, and the binding signal was 0.137 KA relative to UGCAUGU. With B20 the binding signal was 0.0998 KA relative to UGCAUGU. With B21 the binding signal was 0.0871 KA relative to UGCAUGU. With B22 the binding signal was 0.106 KA relative to UGCAUGU. In the case of B23, the binding signal is reported as 0.135 KA relative to UGCAUGU. With B24 the binding signal was 0.771 KA relative to UGCAUGU. In the case of B25, the binding signal is reported as 0.0901 KA relative to UGCAUGU. In the case of B26, the binding signal is reported as 0.109 KA relative to UGCAUGU. With B27 the binding signal was 0.141 KA relative to UGCAUGU. With B28 the binding signal was 0.0947 KA relative to UGCAUGU. In the case of B29, the binding signal is reported as 0.0906 KA relative to UGCAUGU. In the case of B30, the binding signal is reported as 0.0888 KA relative to UGCAUGU. With B31 the binding signal was 0.0824 KA relative to UGCAUGU.
